Test results from the RNAGym collection of RNA variant scans (doi:10.1073/pnas.2313332121).
Variants at the background level are over-represented here.

B1: TPR 5TU (parent)
chain: GGAUCUUCUCGAUCUAACAAAAAAGACAAAUCUGCCACAAAGCUUGAGAGCAUCUUCGGAUGCAGAGGCGGCAGCCUUCGGUGGCGCGAUAGCGCCAACGUUCUCAACUAUGACACGCAAAACGCGUGCUCCGUUGAAUGGAGUUUAUCAUG

Variants of: B1
Experiment: polymerase ribozyme fitness, log enrichment relative to wild type (log ratio); higher = more active; in vitro selection for triplet polymerase activity
How it was run: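 To select mutant libraries of each subunit of a heterodimeric triplet polymerase ribozyme, built by PCR and transcribed, each was annealed with a biotinylated primer, partner subunit and triplets, then incubated frozen at −7 °C. Extended constructs were gel-excised, captured on streptavidin beads and amplified by RT-PCR, in one round carried out in triplicate. Illumina sequencing of input and output libraries kept genotypes with ≥10 input reads and ≥1 read per output. Fitness is the base-2 logarithm of genotype enrichment relative to wild-type enrichment, from inverse-variance-weighted replicate averages.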

Polymerase ribozyme fitness (log ratio), ≤ -4.2:
GGAUCUUCUCGAUCUAACAAAAAAGAAAAAUCUGCCACAAAGCUUGAGAGCAUCUUCGGAUGCAGAGGCGGCAGCCUUCGGUGGCGUGAUAGCGCCAACGUUGUCAACGAUGACACGCAAAACGCGUGAUCCGUUGUAUGGAGUUUAUCAUG [C27A C87U C103G U109G C129A A137U]
GGAUCUUCUCGAUCUAACAAAAAAGAAAAAUCUGCCACAAAGCUUGAGAGCAUCUUCGGAUGCAGAGGCGGCAGCCUUCGGUGGCGCGAUAGUGCCAACGUUCUCAACUAUGACAUGCAAAACGCAUGCUCCGUUGAAUGGAGUUUGUCAUG [C27A C93U C116U G126A A147G]
GGAUCUUCUCGAUCUAACAAAAAAGAAAAAUCUUCCACAAAGCUUGAGAGCAACUUCGGAUGCAGAGGCGCCAGCCUUCGGUGGCGCUAUAGCGCUAACGUUCUCAACUAUGACACGCAAAACGCGUGCUCCGUUGAAUGGAGAUAAUCAUG [C27A G34U U53A G71C G88U C96U U144A U146A]
GGAUCUUCUCGAUCUAACAAAAAAGAAAAAUCUGCCACAAACCUUGAGAGCAUCUUCGGAUGGAGAGGCGGCAGUCCUCGGUGGCGCGCUAGCGUCAACGUUCUCCACUAUGACACGCAAAACGCAUGCUCCGUUGAAUGGAGUUUAACAUG [C27A G42C C63G C75U U77C A89C C95U A106C G126A U148A]
GGAUCUUCUCGAUCUAACAAAAAAGAAAAAUCUGCCACAAACCUUGAGAGCAUCUUCGGAUGCAGAGGCGGCAGACUUAGGUGGGGCGAUAGCGCCAACGUUCUCAACUAUGACACGCAAAACGCGUGCUCCGUUGAAUGGAGGUUAUCAUG [C27A G42C C75A C79A C85G U144G]
GGAUCUUCUCGAUCUAACAAAAAAGAAAAAUCUGCCACAAACCUUGAGAGCAACUUCCGAUGCAGGGGCGGCAGCCUUCGGUGGCGCGAUAGCGGCAACGUUCUCAACUAUGACACGCAAAACCCGUGCUCCGUUGAAUGGAGUUUAUCAUG [C27A G42C U53A G58C A66G C95G G124C]
GGAUCUUCUCGAUCUAACAAAAAAGAAAAAUCUGCCACAAAGCUUUAGAUCAUCUACGGAUGCAGAGGCCGCAGCCUUCGGUGGCGCGAUAGCGCCAACGGUCUCAACUAUGACACGCAAAACGCGUGCUCCGUUGAAUGGAGUUUAUCAUG [C27A G46U G50U U56A G70C U101G]
GGAUCUUCUCGAUCUAACAAAAAAGAAAAAUCUGCCACAAAGCUUGAGAACAUUUUCGGAUGCAGAGGCGGCAGCCUUCGGUGGCGCGAUAGCGACAACGUUCUCAACUAUGACACGCAAAACGCGUGCUCCGUUGAAUGGAGUUUAUCAUG [C27A G50A C54U C95A]
GGAUCUUCUCGAUCUAACAAAAAAGAAAAAUCUGCCACAAAGCUUGAGACCAUUUUCAGAUGCAGAGGCGGCAGCCUUCGGUGGCGCGAUAGCGGCAACGUUCUCAACUAUGACACGCAAAACGCGUGCUCCGUUGAAUGGAGUUGAUCAUG [C27A G50C C54U G58A C95G U146G]
GGAUCUUCUCGAUCUAACAAAAAAGAAAAAUCUGCCACAAAGCUUGAGAUCAUCUUUGGCUGCAGAGGCGGCAGCCUUCGGUGGCGCGAUAGCGCCAACGUUCUCAACUAUGACAGGCAAAACGCGUGCUCCGUUGAAUGGAGUUGCUCAUG [C27A G50U C57U A60C C116G U146G A147C]
GGAUCUUCUCGAUCUAACAAAAAAGAAAAAUCUGCCACAAAGCUUGAGAGCAUCUUCGAAUGCAGAGGCGGCAGCCUUGGGUGGCGCGAUAGCGCCAACGUUCUCAACUCUGACACGCAAAACGCGUGCUCCGUUGAAUGGAGCUUAUCAUG [C27A G59A C79G A110C U144C]
GGAUCUUCUCGAUCUAACAAAAAAGAAAAAUCUGCCACAAAGCUUGAGAGCAUCUUCGCAUGCAGAGGCGGCAGCCUUCGGUGACGCGAUAGCGCCAACGUUCUCAACUAUGACACGCAAAACGCGUGCUCCGUUGAAUGGAGUUUAUCAUG [C27A G59C G84A]
GGAUCUUCUCGAUCUAACAAAAAAGAAAAAUCUGCCACAAAGCUUGAGAGCAUCUUCGGAUGCAGAGGCGACAGCCUUCGGUUGCGCGUUAGCGCCAACGUUCUCAACUAUGACACGCAAAACGCGUGCUUCGUUGUAUGGAGUUUAUCAUG [C27A G71A G83U A89U C131U A137U]
GGAUCUUCUCGAUCUAACAAAAAAGAAAAAUCUGCCACAAAGCUUGAGAGCAUCUUCGGAUGCAGAGGCGCCAGCUUUCGGUGGCGUUAUAGCGCCAACGUUCUCAACUACGACACGCAAGACGCGUGCUCCGUUGAAGGGAGUUUAUCAUG [C27A G71C C76U C87U G88U U111C A121G U139G]
GGAUCUUCUCGAUCUAACAAAAAAGAAAAAUCUGCCACAAAGCUUGAGAGCAUCUUCGGAUGCAGAGGCGUCAGCCUUCGGUGGCGCGAUAGCGCCGACGUUCUCAACUAUGACACGCAAAACGCGUGCUCCGUUGAAUGGAGUUUAUCAUG [C27A G71U A97G]
GGAUCUUCUCGAUCUAACAAAAAAGAAAAAUCUGCCACAAAGCUUGAGAGCAUCUUCGGAUGCAGAGGCGGCAACGUUCGGUGGCCCGAUAGCGCCAACGUUCUCAACUAUGACACGCAAAACGCGUAUUCCGUUGAAUGGAGCUUAUCAUG [C27A G74A C76G G86C G128A C129U U144C]
GGAUCUUCUCGAUCUAACAAAAAAGAAAAAUCUGCCACAAAGCUUGAGAGCAUCUUCGGAUGCAGAGGCGGCAGCCUUCGGUUGCGCGAUAGCGCCAACGUUCUCAACUAUGACACGCAAAACGCUUGCUCCGUUGAAUGGAGUCUAUCAUG [C27A G83U G126U U145C]
GGAUCUUCUCGAUCUAACAAAAAAGAAAAAUCUGCCACAAAGCUUGAGAGCAUCUUCGGAUGCAGAGGCGGCAGCCUUCGGUGACGCGAUAGCGCGAACGUUCUCAACUAUGACACGCAAAACGCGUGCACCGUUGAAUGGAGUAUAUCAUG [C27A G84A C96G U130A U145A]
GGAUCUUCUCGAUCUAACAAAAAAGAAAAAUCUGCCACAAAGCUUGAGAGCAUCUUCGGAUGCAGAGGCGGCAGCCUUCGGUGUCGCGAUAGCGCCAACGUUCUCAACUAUGACACGCAAAACGCGUGGUCCGUUGAAUGGAGUUUAUCCUG [C27A G84U C129G A150C]
